The supplement of paper PMC3334620
The full ranking holds about 33,000 sequences; the median of “E-score (-0.5 to 0.5)” is about -0.036, and the highest 2% start at about 0.37. The list shows a part of the results.

The sequences below were run against T1, Yer064c (UniProt P40041) (assay: PBM E-score (8-mer binding enrichment) (E-score (-0.5 to 0.5)); higher = stronger / more preferred TF binding; most listed sequences are background and not binding sites). Conditions: protein concentration: 200 nM; construct: GST-full length.
T1 sequence: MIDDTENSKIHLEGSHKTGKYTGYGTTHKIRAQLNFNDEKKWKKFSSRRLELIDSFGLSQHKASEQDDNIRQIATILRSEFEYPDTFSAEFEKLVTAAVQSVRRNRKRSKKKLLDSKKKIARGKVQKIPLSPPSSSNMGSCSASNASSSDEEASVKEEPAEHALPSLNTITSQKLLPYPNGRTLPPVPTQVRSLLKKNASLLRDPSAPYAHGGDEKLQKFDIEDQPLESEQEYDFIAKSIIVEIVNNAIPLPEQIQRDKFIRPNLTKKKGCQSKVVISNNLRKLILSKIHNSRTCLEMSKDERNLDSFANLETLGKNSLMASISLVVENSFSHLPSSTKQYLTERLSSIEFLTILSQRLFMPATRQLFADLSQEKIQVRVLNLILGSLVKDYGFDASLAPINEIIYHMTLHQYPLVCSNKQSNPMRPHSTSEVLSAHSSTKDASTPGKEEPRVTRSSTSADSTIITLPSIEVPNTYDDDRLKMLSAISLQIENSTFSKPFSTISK
Protocol: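 Universal 'all 10-mer' protein binding microarrays (Agilent AMADID 015681) probed with GST-tagged S. cerevisiae TFs (full-length or DBD) made by in vitro transcription/translation (PURExpress), about 100-200 nM. Bound TF was detected with fluorescent anti-GST. Each ungapped 8-mer (which stands for itself and its reverse complement) is scored by the PBM enrichment score (E-score), a modified Wilcoxon-Mann-Whitney statistic from -0.5 to +0.5, computed with the Universal PBM Analysis Suite. Scale: above 0.35 generally sequence-specific binding.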

Row | Sequence | PBM E-score
1 | CATGGGTC | 0.0941
2 | GGGTCGTA | -0.191
3 | GACACGAA | -0.156
4 | CACATCAA | 0.128
5 | TACGTGCA | -0.0319
6 | AGAAGGAT | -0.0779
7 | ACCCCATA | -0.00545
8 | CCTTGAAG | -0.0782
9 | ACAGTCCC | 0.0079
10 | TAGGGGAA | -0.172
11 | GCATGCAC | -0.0257
12 | CCGAATCA | 0.348
13 | GCCATTAA | 0.0294
14 | ACGCCAGC | -0.222
15 | CTCAATCC | 0.146
16 | GGCGACTA | 0.402
17 | TAGCCTCA | 0.0105
18 | CTCCCCTA | 0.0602
19 | ATTTTACA | -0.00986
20 | CGCCGCAG | -0.2
21 | CGCTTGCA | -0.132
22 | CAACGGAC | 0.00462
23 | ATGGGCCC | -0.231
24 | AGGGCGTC | -0.364
25 | CTTCGTGC | -0.00244

Row | Sequence | PBM E-score
26 | TCCCGACA | 0.0419
27 | GTCCTCTA | -0.0702
28 | AAAGAATA | 0.0434
29 | AATAAGAA | 0.0151
30 | AGACTTCA | 0.13
31 | AATTGGTA | -0.0745
32 | CGATTCAG | 0.257
33 | GCTGTCTA | -0.128
34 | CCATTAGC | -0.0335
35 | AAGAGTCT | 0.355
36 | CAAGGTCG | -0.167
37 | CGGGCCTC | -0.321
38 | CACTGAAG | -0.0332
39 | CGAGTTAA | 0.112
40 | AAAACACC | -0.0208
41 | ACGTAGCG | -0.331
42 | CTTCAGCC | -0.0159
43 | ACGACAAA | 0.0154
44 | AGCAGGCA | -0.0692
45 | TACCACAA | 0.126
46 | AGTCGATC | 0.109
47 | TCCTAACA | 0.00757
48 | CGGCGGGC | -0.0702
49 | ACGCTGGG | -0.301
50 | GGTAGTTA | -0.0766

Row | Sequence | PBM E-score
51 | GTGATTCA | 0.474
52 | CGTAATTA | -0.00543
53 | GGAGTCGA | 0.212
54 | CGTACGAC | 0.041
55 | CAGATCAC | -0.0955
56 | CGATGGAG | -0.0738
57 | ACTGGGAT | 0.0594
58 | ACATATAC | 0.0229
59 | AGGCAAGG | -0.0548
60 | CGGCAGGC | -0.052
61 | ATGGACGG | -0.109
62 | CACCGTGG | -0.199
63 | CAGTCCGC | 0.16
64 | GGCTGCGA | 0.0456
65 | AGCTAAAG | 0.0851
66 | CATCAAAG | 0.0258
67 | ACTACGTG | 0.156
68 | AAACTATA | 0.09
69 | AAACCTTA | 0.0874
70 | ACGACGCC | -0.211
71 | ATGCGAGA | 0.00686
72 | CCGCTGCC | -0.118
73 | CAAATACC | -0.0305
74 | CGCGTCAA | -0.105
75 | ATCGTGAG | 0.124

Row | Sequence | PBM E-score
76 | AGCCAAAC | -0.075
77 | CGAATCTC | -0.0267
78 | ATACTAAA | 0.163
79 | CAATCGGG | -0.0625
80 | CTGCGTCC | -0.0559
81 | GGCTTTAA | 0.0622
82 | GAGATCTC | -0.163
83 | ATCCTGTA | 0.0133
84 | AGCAAATG | -0.0298
85 | TAGAGACA | 0.06
86 | GGCATTAC | -0.223
87 | AGATGAGC | 0.0974
88 | TATGTAGA | 0.0301
89 | CATGCAAG | -0.0496
90 | CCGAGCTA | -0.155
91 | CACGAGGA | -0.014
92 | ATGGTGGC | -0.122
93 | ATATTTAC | 0.0883
94 | AAAAGTGA | 0.192
95 | GGAACGGA | -0.254
96 | CGCCTACA | -0.203
97 | AGTAACAA | 0.13
98 | GCACGCAA | -0.354
99 | CGCCTAGC | -0.36
100 | GGAATATA | 0.103

Row | Sequence | PBM E-score
101 | CTACAGAG | -0.00669
102 | CACCGTGC | -0.0357
103 | CCCGGACC | -0.189
104 | CCGCGGAA | -0.139
105 | AGCACCAC | -0.223
106 | CTACGAAA | -0.119
107 | CATAAAGA | 0.0843
108 | AATACCGT | -0.0314
109 | CTCTGACA | -0.0688
110 | GCCGTGCC | -0.24
111 | TCAGTACA | 0.0887
112 | AACTGCAA | -0.0944
113 | ATGTTCCC | -0.106
114 | ACCCCTAG | -0.115
115 | ACGTATAA | -0.0181
116 | ATTCCAGC | -0.115
117 | CCCCGTCA | -0.156
118 | GGTGAGAC | 0.226
119 | GAATTTGC | -0.133
120 | CGGATGCA | -0.221
121 | AGTCTTCC | 0.432
122 | AGGAAAGC | -0.307
123 | ACTAAAGT | 0.187
124 | CGACAATC | 0.0476
125 | CTTGAAGC | -0.0843

Row | Sequence | PBM E-score
126 | GAACTCAC | 0.25
127 | ATAGGCGC | -0.219
128 | ACTGACCC | 0.0295
129 | AGTAGTGG | -0.0372
130 | CGGGTCTA | -0.135
131 | AATTAGAA | -0.0394
132 | AGGCGGGC | -0.382
133 | ACATGTCA | -0.126
134 | ACCCGTAC | -0.183
135 | ATAAAGGC | -0.143
136 | AGAACTCA | 0.187
137 | AGTGATCA | 0.211
138 | GGCGCACC | -0.25
139 | CCAAACCA | -0.159
140 | AGACGTAT | -0.0172
141 | AACTGCAG | -0.145
142 | GTTATTAA | 0.0491
143 | ATGTCAAA | 0.00407
144 | AAACACTT | -0.0548
145 | GACACTTA | -0.0441
146 | GCTGCAGA | -0.0903
147 | TAGGATCA | 0.0673
148 | AACGCGAG | -0.00013
149 | ACACGCAA | -0.0968
150 | GCCCCGGA | -0.22

Row | Sequence | PBM E-score
151 | GCAACCCA | -0.0277
152 | AGTTTGAT | 0.163
153 | CAAAGTGA | 0.113
154 | CAACCCCA | -0.0646
155 | CAGACACC | -0.0709
156 | CGAAGGGA | -0.119
157 | ACGATACG | -0.207
158 | CGGTCTCC | -0.249
159 | GGCAACGA | -0.148
160 | GAATCGGA | 0.218
161 | CTAGTCCA | 0.109
162 | CCCGACCG | -0.385
163 | CTTTTAAA | 0.0136
164 | CCGCAGCA | -0.194
165 | ATTACCTG | 0.0843
166 | AAGGCCGT | -0.258
167 | ACCGCATG | 0.0271
168 | AGGCGCCG | -0.125
169 | AGTGTTAC | 0.0396
170 | ACGCTTGA | 0.012
171 | GTAGTATA | 0.084
172 | AAATGGCA | -0.131
173 | AAGGCTTA | 0.0432
174 | CATGCTCG | 0.0136
175 | ATGGGACG | -0.308

Row | Sequence | PBM E-score
176 | CAAAGGGC | -0.031
177 | GAGGGACA | -0.267
178 | ATGTTAAT | 0.169
179 | CCATTGAC | 0.0546
180 | AGATTAAA | 0.309
181 | CCAGCCGC | 0.0158
182 | ATTCTAAA | 0.0754
183 | AGAGTACG | 0.0698
184 | TCCGTTCA | -0.165
185 | AGGCTCGC | -0.22
186 | AACGTAAT | 0.023
187 | CGAAGGAA | -0.052
188 | ATAAGGGA | -0.25
189 | ATCGGAGC | -0.0582
190 | CCCGATGC | -0.222
191 | GCCCTGGA | -0.297
192 | ACACAAAC | -0.0121
193 | ACACCAGT | 0.0254
194 | AGAACCCA | -0.0189
195 | GGCTATGA | 0.113
196 | TATTTGGA | -0.119
197 | CATAGGAA | -0.154
198 | GAGGACCA | -0.0209
199 | CCACGAGA | -0.109
200 | AGTCCTCC | 0.298

Row | Sequence | PBM E-score
201 | CCCAGACA | -0.198
202 | GCACTGAC | 0.131
203 | CGCGCAAC | -0.16
204 | ATGGACCA | 0.0226
205 | GTGTGTTA | 0.235
206 | ATCCGTGC | 0.0406
207 | CGGCGGAA | -0.185
208 | AATCTAAT | -0.0337
209 | CTAGAGTA | 0.138
210 | AATTCGTC | -0.0764
211 | CTCCCTCA | -0.12
212 | AACCCTTC | -0.0797
213 | ATCAATAG | 0.0427
214 | CCACGTTA | 0.0265
215 | ATAGGACA | -0.118
216 | AAATGGGG | -0.226
217 | ACTATCCA | 0.12
218 | CCTACGAC | 0.21
219 | CGCTGAGC | 0.00332
